What all share (experiment): Primary Screen for Target Class Profiling of Small Molecule Inhibitors of Methyltransferases
Test [1] addresses Glycine N-methyltransferase (Homo sapiens) (UniProt Q14749). The note with it: purified enzyme, MTase-Glo SAH luminescence; measured here: GNMT inhibition; at 40 µM; stronger effect = lower value. Put shortly: (§1)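 Each enzyme was reacted with SAM and its substrate, with compounds tested once at 40 uM; SAH formed was read by MTase-Glo luminescence.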
In test [2] the target is Guanidinoacetate N-methyltransferase (Homo sapiens) (UniProt Q14353). The note with it: purified enzyme, MTase-Glo SAH luminescence; measured here: GAMT inhibition; at 40 µM; stronger effect = lower value. Summed up:
as §1

Test [3] addresses Histamine N-methyltransferase (Homo sapiens) (UniProt P50135). As to conditions: purified enzyme, MTase-Glo SAH luminescence; measured here: HNMT inhibition; at 40 µM; stronger effect = lower value. Summed up:
as §1

For test [4], the target named is Nicotinamide N-methyltransferase (Homo sapiens) (UniProt P40261). As to conditions: purified enzyme, MTase-Glo SAH luminescence; measured here: NNMT inhibition; at 40 µM; stronger effect = lower value. Put shortly:
as §1

Test [5] has as its target Phenylethanolamine N-methyltransferase (Homo sapiens) (UniProt P11086). As to conditions: purified enzyme, MTase-Glo SAH luminescence; measured here: PNMT inhibition; at 40 µM; stronger effect = lower value. Summed up: as §1

Some of the results follow. Shown are side measurements of this screen, not its main read-out; they come without a call.
On the % scale 0 is the no-effect control and ±100 the full control effect.

As for `CC(C)[C@@H]1CN(C(=O)CCn2ccc(=O)[nH]c2=O)C[C@H]1NC(=O)N(C)C`, the activity change, negative = inhibition was 2.31% in test [1]; -1.83% in test [2]; 3.11% in test [3]; 3.3% in test [4]; 0.357% in test [5].

On to `CC1C(=O)Nc2ccc(S(=O)(=O)N3CCN(c4cccc(Cl)c4)CC3)cc2NC1=O` (stereo unspecified), for which the activity change, negative = inhibition in test [1] was -5.8%; in test [2] it was 2.93%; in test [3], -4.3%; in test [4], -6.17%; in test [5] it was -4.9%.

For `C[C@H]1CC[C@@H]2N(C1)C[C@@H]1[C@H]([C@@H](O)[C@H](O)[C@]3(O)[C@H]1C[C@@]14OC5(O)[C@@H](C[C@@H](O)[C@@H]31)[C@]4(C)CC[C@@H]5O)[C@]2(C)O`, the activity change, negative = inhibition is 0.867% in test [1]; 1.53% in test [2]; 7.71% in test [3]; -9.46% in test [4]; -2.27% in test [5].

For `CC1CCC2C(=CCC(O)C2(C)C)C1(C)Cc1c(O)cc(CO)c(C=O)c1O` (stereo unspecified), the activity change, negative = inhibition in test [1] is 4.63%; in test [2], 11.5%; in test [3], 8.52%; in test [4], -11.5%; in test [5], 4%.

Take `CC(CCC1(O)OC2CC3C4CC=C5CC(O[C@@H]6O[C@H](CO)[C@@H](O[C@@H]7O[C@H](CO)[C@@H](O)[C@H](O)[C@H]7O)[C@H](O)[C@H]6O[C@@H]6O[C@@H](C)[C@H](O)[C@@H](O)[C@H]6O)CCC5(C)C4CCC3(C)C2C1C)CO[C@@H]1O[C@H](CO)[C@@H](O)[C@H](O)[C@H]1O` (stereo partly specified): the activity change, negative = inhibition in test [1] is 3.5%; in test [2], 1.46%; in test [3], 6.8%; in test [4] it was -9.37%; in test [5] it was 6.35%.

On to `CNCCC(Oc1ccc(C(F)(F)F)cc1)c1ccccc1` (stereo unspecified), for which the activity change, negative = inhibition in test [1] was -7.65%; in test [2] it was 5%; in test [3], -2.27%; in test [4], -7.95%; in test [5], 6.25%.

`Cc1cc(Cl)ccc1N1C(=O)c2cc(-c3ccccc3)nn2CC1(C)C(=O)NCc1ccccc1` (stereo unspecified): the activity change, negative = inhibition in test [1] turned out to be 7.71%; in test [2] it was 1.28%; in test [3] it was 8.88%; in test [4] it was 7.39%; in test [5], 2.91%.

With `CC1=CC(=O)CC(C)(C)C1CO[C@@H]1O[C@H](CO)[C@@H](O)[C@H](O)[C@H]1O` (stereo partly specified), the activity change, negative = inhibition in test [1] was 1.68%; in test [2], -1.36%; in test [3], 9.45%; in test [4] it was -11.7%; in test [5] it was 4.29%.

In the case of `CC(=O)Nc1c2n(c3ccccc13)CC(C)(C(=O)NC1CCCCCC1)N(Cc1ccco1)C2=O` (stereo unspecified), the activity change, negative = inhibition was 1.04% in test [1]; 0% in test [2]; 7.89% in test [3]; -1.14% in test [4]; 5.09% in test [5].

For `Cc1ccc(Cn2c(=O)c3ccc(C(=O)NC4CCCC4)cc3n3c(=O)n(Cc4ccccc4)nc23)cc1`, the activity change, negative = inhibition in test [1] stood at 4.48%; in test [2], 0.104%; in test [3], 7.81%; in test [4], 3.9%; in test [5], 7.11%.

As to `CN(C(=O)c1cn2c(-c3ccc(C(F)(F)F)cc3)cnc2cn1)c1ccc(C#N)cc1`, the activity change, negative = inhibition in test [2] is 3.21%; in test [4] it was -13.1%; in test [5], -3.89%.

Regarding `OC1(c2csc(CN3CCOCC3)n2)CCN(C2CCCC2)CC1`, the activity change, negative = inhibition was -1.91% in test [1]; 3.71% in test [2]; -11.7% in test [3]; 1.22% in test [4]; 13.3% in test [5].

In the case of `O=C1CN(Cc2c(F)cccc2Cl)S(=O)(=O)c2ccccc2N1Cc1ccccc1`, the activity change, negative = inhibition came out at 12.7% in test [1]; 3.24% in test [2]; 13.1% in test [3]; 2.98% in test [4]; 10.2% in test [5].

On to `CCCCN1C(=O)c2cc3ccc(OC)cc3n2CC1(C)C(=O)NC1CCCC1` (stereo unspecified), for which the activity change, negative = inhibition is -7.03% in test [1]; 2.08% in test [2]; -1.43% in test [3]; -5.63% in test [4]; -3.16% in test [5].

`O=C(c1ccc(Cl)cc1)N1CCN(c2ccnc3cc(Cl)ccc23)CC1`: the activity change, negative = inhibition is -18.2% in test [1]; -5.76% in test [2]; -17.4% in test [3]; -50.3% in test [4]; -7.22% in test [5].

On to `CN(C)c1nccnc1OC1CCN(S(=O)(=O)Cc2ccccc2)C1` (stereo unspecified), for which the activity change, negative = inhibition in test [1] was -6.15%; in test [2], -6.68%; in test [3] it was -6.9%; in test [4], -8.88%; in test [5] it was -4.63%.

With `CCCn1c(=O)c2ccc(C(=O)NCC(C)C)cc2n2c(=O)n(CC(=O)Nc3cccc(Cl)c3)nc12`, the activity change, negative = inhibition is 4.14% in test [1]; 1.62% in test [2]; 4.27% in test [3]; -3.54% in test [4]; -1.1% in test [5].

In the case of `CCC(C)NC(=O)c1ccc2c(=O)n(C(C)C)c3nn(CC(=O)Nc4ccccc4)c(=O)n3c2c1` (stereo unspecified), the activity change, negative = inhibition in test [1] is -1.44%; in test [2], 3.09%; in test [3] it was -3.31%; in test [4], -2.91%; in test [5], -0.069%.

For the compound `COc1cc2nc(N3CCN(C)CC3)nc(NC3CCN(Cc4ccccc4)CC3)c2cc1OC`, the activity change, negative = inhibition in test [1] is -6.46%; in test [2], -8.51%; in test [3], -71%; in test [4], -24.3%; in test [5], -5.24%.

For the compound `OCC1(Cc2ccccc2F)CCCN(c2nnnn2-c2ccccc2)C1` (stereo unspecified), the activity change, negative = inhibition in test [1] is -9.01%; in test [2], -8.31%; in test [3], -4.08%; in test [4], -18.5%; in test [5], -7.43%.

On to `CC(C)CC1NC(=O)C(C)NC(=O)C(CC(C)C)OC(=O)CCCNC1=O` (stereo unspecified), for which the activity change, negative = inhibition in test [1] was 4.03%; in test [2] it was 2.78%; in test [3] it was 8.33%; in test [4], -9.89%; in test [5] it was -2.3%.

In the case of `CC(C)Cn1c(=O)c2ccc(C(=O)NC3CCCCC3)cc2n2c(=O)n(CC(=O)c3ccccc3)nc12`, the activity change, negative = inhibition in test [1] came to 5.58%; in test [2] it was 0.973%; in test [3], 7.35%; in test [4] it was 0.231%; in test [5], 4.25%.

Regarding `CCn1c(=O)c2c(cc(C)n2C)n(CC(=O)Nc2ccccc2C)c1=O`, the activity change, negative = inhibition is -2.77% in test [1]; -1.4% in test [2]; -0.309% in test [3]; -8.24% in test [4]; -1.82% in test [5].

For `COc1ccc(-c2nnn3c2nc(N2CCOCC2)c2ccccc23)cc1`, the activity change, negative = inhibition in test [1] is -22%; in test [2], -6.2%; in test [3], -16.5%; in test [4], -19.6%; in test [5], -32.7%.

As to `CCNC(=O)[C@H]1CCCN1C(=O)[C@H](CCCN=C(N)N)NC(=O)[C@H](CC(C)C)NC(=O)[C@H](CC(C)C)NC(=O)[C@@H](Cc1ccc(O)cc1)NC(=O)[C@H](CO)NC(=O)[C@@H](Cc1c[nH]c2ccccc12)NC(=O)[C@H](Cc1cnc[nH]1)NC(=O)[C@@H]1CCC(=O)N1`, the activity change, negative = inhibition in test [2] is 9.91%; in test [4], -9.26%; in test [5], -4.07%.

Consider `COc1ccccc1CNC(=O)C1(C)Cn2c(cc3ccccc32)C(=O)N1CCC(C)C` (stereo unspecified), for which the activity change, negative = inhibition stood at 2.05% in test [1]; 4.59% in test [2]; 8.1% in test [3]; 3.23% in test [4]; 1.06% in test [5].

With `O=C1NCCC[C@@H]1NC(=O)[C@H]1CN(C(=O)c2cccc(F)c2)CCN1C(=O)c1cccs1`, the activity change, negative = inhibition in test [1] is -2.07%; in test [2] it was -2.91%; in test [3] it was -0.039%; in test [4], -12%; in test [5] it was -21.5%.

For the compound `Cc1cccc(NC(=O)Cn2c(=O)oc3cc(S(=O)(=O)NCc4ccccc4)ccc32)c1C`, the activity change, negative = inhibition in test [1] is -4.73%; in test [2], 1.93%; in test [3] it was -0.909%; in test [4], 3.52%; in test [5], -5.88%.

The record behind these values is PubChem BioAssay AID1745853 (National Center for Advancing Translational Sciences (NCATS), 2022).
